One molecule from PubChem BioAssay AID288 (DTP/NCI, 2004) can be followed below.

This experiment relates to BDF1 mice, M5076 sarcoma s.c., survival/tumor T/C. As to the kind of experiment: NCI In Vivo Anticancer Drug Screen. Data for tumor model Sarcoma M5076 (subcutaneous) in B6D2F1 (BDF1) mice. The note with it: endpoint: median survival time; dose: 38.9 mg/kg/injection; schedule: Q01DX017 (sc); vehicle: Klucel (hydroxypropylcellulose) (HPC); higher = longer survival. As to the method: The antitumor activity of compounds was measured in mice bearing transplantable tumors. Survival or tumor size were measured and the results are expressed as the measurement made in the treated group (T) divided by the measurement made in the vehicle treated control group (C). The tumor model used in this assay is Sarcoma M5076 (subcutaneous) in B6D2F1 (BDF1) mice

Each structure is given as a SMILES string. Records with an inconclusive call do not appear. The source holds more than one record for some entries. The list is limited to them. There may be further records. Results that share an entry differ for a reason that is not stated; some may be repeats, others may stem from another dose, organism or construct than stated.

For the molecule `CC1(CO)C(O)CCC2(C)C1CCC1CC3CC12CCC3(O)CO` (stereo unspecified), the T/C was 121 % of control and 160 % of control.
